# Assay results: article PMC4336329 (PLoS ONE, 2015)
# About 14,000 (4.5%) of roughly 310,000 compounds showed an effect of 50% or more. The effect is printed as a negative number. Some of the results follow.
# Biological target: human ether-à-go-go-related gene (hERG) potassium channel (human, UniProt Q12809)
# Assay: primary screen, population patch clamp on CHO cells stably expressing hERG
# 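Also: peak tail current of the secondary pulse compared with the same well before compound.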
# Chain of human ether-à-go-go-related gene (hERG) potassium channel (Q12809 whole entry, looked up): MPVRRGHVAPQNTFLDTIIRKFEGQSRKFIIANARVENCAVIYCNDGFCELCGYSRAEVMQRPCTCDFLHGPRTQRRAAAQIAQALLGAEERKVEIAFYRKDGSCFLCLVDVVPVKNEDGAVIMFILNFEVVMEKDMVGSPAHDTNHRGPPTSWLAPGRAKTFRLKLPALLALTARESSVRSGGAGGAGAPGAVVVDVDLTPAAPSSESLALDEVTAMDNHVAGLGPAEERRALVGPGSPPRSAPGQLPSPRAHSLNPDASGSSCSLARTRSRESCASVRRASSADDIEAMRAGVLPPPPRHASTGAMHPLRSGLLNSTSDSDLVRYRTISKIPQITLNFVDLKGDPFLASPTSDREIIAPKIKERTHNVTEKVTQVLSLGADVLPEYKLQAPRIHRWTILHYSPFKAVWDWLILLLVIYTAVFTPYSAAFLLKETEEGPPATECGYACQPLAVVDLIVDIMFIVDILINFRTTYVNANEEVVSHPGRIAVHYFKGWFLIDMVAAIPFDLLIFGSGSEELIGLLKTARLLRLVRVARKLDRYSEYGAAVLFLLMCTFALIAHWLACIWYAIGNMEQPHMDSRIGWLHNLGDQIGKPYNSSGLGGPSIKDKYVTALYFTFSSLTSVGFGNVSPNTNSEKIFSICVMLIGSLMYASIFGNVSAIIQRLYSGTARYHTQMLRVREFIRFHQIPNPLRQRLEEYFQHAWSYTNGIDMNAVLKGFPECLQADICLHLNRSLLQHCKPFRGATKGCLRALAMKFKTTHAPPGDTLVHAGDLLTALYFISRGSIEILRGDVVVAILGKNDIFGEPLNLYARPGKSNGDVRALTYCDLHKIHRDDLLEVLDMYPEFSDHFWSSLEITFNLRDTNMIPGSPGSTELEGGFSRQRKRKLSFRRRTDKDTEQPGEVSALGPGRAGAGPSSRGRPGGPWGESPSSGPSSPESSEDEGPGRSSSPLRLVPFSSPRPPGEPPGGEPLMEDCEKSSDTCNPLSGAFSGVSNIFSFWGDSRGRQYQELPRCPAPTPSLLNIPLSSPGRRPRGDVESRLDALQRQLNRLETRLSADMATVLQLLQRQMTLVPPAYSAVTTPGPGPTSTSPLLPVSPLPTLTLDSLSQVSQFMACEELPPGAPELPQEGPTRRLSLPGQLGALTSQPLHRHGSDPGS
row,Compound,"hERG current change (%, negative = inhibition) at 10uM"
1,COc1ccc(C2C3=C(CCCC3=O)N(CC(=O)O)C3=C2C(=O)CCC3)cc1,17.2%
2,O=C(Cc1cccs1)NCc1ccc(Cl)cc1Cl,5.57%
3,O=C(COC(=O)c1ccccc1NCCO)NNC(=O)c1cccs1,-3.59%
4,NC(=O)c1ccc(-n2nnnc2SCc2ccc(F)cc2)cc1,-6.81%
5,Cc1cc(=O)[nH]c(SCC(=O)Nc2cccc3ccccc23)c1C#N,-5.68%
6,O=C(c1ccc(-c2ccccc2)cc1)N1CCN(c2ncccn2)CC1,-5.92%
7,O=C(CSc1nnnn1-c1cccc(C(=O)O)c1)NC(c1ccccc1)c1ccccc1,22.7%
8,Cc1noc(COc2ccccc2OCC(N)=O)n1,8.89%
9,C=CCNc1nc(Nc2ccc([N+](=O)[O-])cc2)nc(OC)n1,-14.1%
10,CCc1nn(CC(=O)N2CCC(C(N)=O)CC2)c(=O)c2cc3occc3n12,9.07%
11,COc1ccc([C@H]2CC(=O)C=C(c3ccccc3Oc3ccccc3)C2)cc1,4.74%
12,CS(=O)(=O)O.Cn1cc(C(F)(F)F)nc1-c1ccc(OCC(O)CNCCOc2ccc(O)c(C(N)=O)c2)cc1 (stereo not shown),-7.51%
13,COc1ccc(CN(C)C(=O)c2ccc(Oc3ccccc3)cc2)cc1F,-15.6%
14,CCOC(=O)c1c(NC(=O)/C=C/C(=O)O)sc(C)c1-c1ccc(C)c(C)c1,-13.3%
15,C/C(=C\c1cccs1)C(=O)c1c(C)cc(C)[nH]c1=O,-7.64%
16,Cc1cccc(CN2C(=O)c3ccccc3Sc3ccc(C(=O)NCCN4CCOCC4)cc32)c1,-38%
17,Cc1ccc(CNC(=O)Cn2ccc3cc(S(=O)(=O)N4CCCC4)ccc32)o1,0.583%
18,CCOc1cc(C(=O)NCc2ccc(C)cc2)ccc1OCC(=O)N1CCOCC1,4.68%
19,CCOc1ccc(N2CC(C(=O)N3CCCCC3)CC2=O)cc1 (stereo not shown),18.6%
20,c1ccc(-c2ccc(-c3nc(-c4ccncc4)no3)cc2)cc1,3.02%
21,CCOCCCNC(=O)c1ccc(OC2CCN(C(C)=O)CC2)c(OC)c1,14.9%
22,O=C1Nc2c(c(=O)[nH]c(=O)n2-c2ccccc2)C(C(F)(F)F)(C(F)(F)F)N1,-1.37%

row,Compound,"hERG current change (%, negative = inhibition) at 10uM"
1,O=C(CSc1nnc(-c2ccccc2O)n1Cc1ccccc1)NNC(=O)c1ccccc1O,0.52%
2,CCCN=C1NC(=O)C(CC(=O)NCCc2ccccc2)S1 (stereo not shown),-0.483%
3,Cc1cccc(NC(=O)N(Cc2nc3ccccc3c(=O)[nH]2)C2CCCC2)c1,3.1%
4,CC1(C)CC(=O)C(CC2=C(N)CC(C)(C)CC2=O)=C(N)C1,4.6%
5,COC(=O)c1cc(=O)n(Cc2ccc(F)cc2)c(=NCc2ccc(F)cc2)s1,14.6%
6,Cc1ccc(N(CC(=O)NC2CCCCC2)C(=O)CNC(=O)c2ccco2)cc1C,-10.8%
7,CCNC(=O)N1CCC(n2nccc2NC(=O)CCCc2ccccc2)CC1,16.5%
8,O=C(Nc1cccc(F)c1)c1sc(Cl)nc1-c1ccccc1,-2.44%
9,COC(=O)c1noc(C)c1-c1ccnn1C(=O)c1ccc(C)cc1,21.3%
10,COc1ccc(N(CC(=O)Nc2c(C)n(C)n(-c3ccccc3)c2=O)S(=O)(=O)c2ccc(C)cc2)cc1,-29.4%
11,Cc1ccc2c(C(=O)CN3CCCCC3)c(C)[nH]c2c1,-11.1%
12,CCOC(=O)N1CCC(N2Cc3cccc(C(=O)NCc4ccc(C)cc4)c3C2=O)CC1,-42.6%
13,COc1cc(/C=N/NS(=O)(=O)c2ccc3ccccc3c2)ccc1OCCN1CCOCC1,-39.5%
14,COc1ccc(C2=CC(=O)N(Nc3ccccc3)C2=O)cc1,24.6%
15,Cc1c(NC(=O)c2ccc3c(c2)C(=O)N(Cc2ccco2)C3=O)cccc1C(=O)O,23.2%
16,COC(=O)c1ccc(CSc2nnc(CNC(=O)COc3ccc(Cl)cc3)o2)o1,-38.1%
17,CC(Oc1ccc2c(-c3ccccc3)cc(=O)oc2c1)C(=O)N[C@H](Cc1c[nH]c2ccccc12)C(=O)O (stereo partly shown),7.48%
18,N#Cc1ccccc1/C=C/C(=O)N1CCOCC1,20.2%
19,CCOc1ccc(NC(=O)N2CC(C)OC(C)C2)cc1 (stereo not shown),9.92%
20,Cc1ccccc1C(=O)NC(=S)Nc1ncccn1,-5.71%
21,CC(NC(=O)c1ccc2ccccc2n1)c1ccc(S(N)(=O)=O)cc1 (stereo not shown),24.9%
22,CC12CC3(C)CC(C)(C1)CC(C(=O)NCc1cccnc1)(C2)C3,-11.9%

row,Compound,"hERG current change (%, negative = inhibition) at 10uM"
1,O=C(CSc1ncn[nH]1)N/N=C/c1ccc(F)cc1,16.4%
2,CCN(CC)c1nc(SCCOC(=O)Nc2ccccc2)nc(N(CC)CC)n1,7.09%
3,CC(=O)NC(CCS(C)(=O)=O)C(=O)Nc1cccc(C)c1C (stereo not shown),-3.36%
4,O=c1c(Cc2ccccc2)c(O)ccn1C1CCCCCCC1,10.1%
5,O=C(OCc1cc2ccccc2[nH]c1=O)c1cccs1,17.7%
6,Cc1ccc(CSc2nnc(-c3ccncc3)o2)c(C)c1,11.2%
7,COc1cn(-c2ccccc2)nc1C(=O)Nc1ccc(C)cc1,-6.01%
8,CC(=O)N1N=C(c2ccc(Cl)cc2)CC1c1ccco1 (stereo not shown),7.11%
9,Oc1c(N=Nc2ccc(F)cc2)ccc2ccccc12,21.6%
10,CCOc1ccc(Oc2ccccc2NC(=O)CSCC(=O)Nc2cc(C)on2)cc1,18.7%
11,O=C(Nc1cccc(-c2nc3ccccc3s2)c1)c1cccs1,-53.1%
12,Nc1nc(NCCN2CCOCC2)nc(NCc2ccccc2)c1[N+](=O)[O-],-17.6%
13,COCCCNC(=O)CCC(=O)Nc1ccc2nc(N3CCOCC3)cc(C)c2c1,4%
14,CC(=O)Nc1ccc(NC(=O)COC(=O)CCc2nc3ccccc3s2)cc1,8.76%
15,COc1cc(C(C)=O)ccc1OC(=O)N(C)c1ccccc1,-3.34%
16,Nc1nc(CN2CCN(c3ccccc3)CC2)nc(Nc2ccc(Cl)cc2)n1,-76%
17,Cc1cc(C)c(S(=O)(=O)NCC2CCC(C(=O)N3CCC4(CC3)OCCO4)CC2)c(C)c1 (stereo not shown),-25.3%
18,COc1ccc(Nc2nnc(-c3ccccc3)c3ccccc23)cc1C(=O)N1CCCCC1,-73%
19,CC(=O)Nc1ccc(S(=O)(=O)/N=C2\SCCN2S(=O)(=O)c2ccc(NC(C)=O)cc2)cc1,-5.46%
20,CCOc1ccc(CCNC(=O)CS(=O)(=O)Cc2nc(-c3ccc(OC)cc3)oc2C)cc1,-3.84%
21,CCC(C)(C)NC(=O)C(c1ccccc1)N(C(=O)c1csnn1)C1CC1 (stereo not shown),10.7%
22,COCCNC(=S)N(CCc1c(C)[nH]c2ccc(Cl)cc12)Cc1cccnc1,-39.4%

row,Compound,"hERG current change (%, negative = inhibition) at 10uM"
1,Cc1nnc(SCC(=O)N2CCc3ccccc32)n1-c1ccccc1,10.9%
2,O=S(=O)(NCC(c1cccnc1)N1CCN(c2ccc(F)cc2)CC1)c1cccs1 (stereo not shown),-71.7%
3,CC(C)(CNC(=O)c1cc(-c2ccc(Cl)s2)nc2ccccc12)N1CCOCC1,-55.1%
4,Nc1cc(N)nc(SCC(=O)NC(=O)NC2CCCC2)n1,0.315%
5,Cc1ccc(/C=C/S(=O)(=O)NCc2ccc(F)cc2)cc1,7.03%
6,O=C(Cn1c(CO)nc2ccccc21)Nc1ccccc1Cl,25.1%
7,CC1CN(CCOc2ccccc2-c2ccccc2)CC(C)O1.O=C(O)C(=O)O (stereo not shown),-9.99%
8,COC(=O)c1ccc(COc2ccccc2/C=C(\C#N)C(=O)Nc2c(C)cccc2C)cc1,16.9%
9,O=C1S/C(=C\c2cccs2)C(=O)N1c1ccc(O)cc1,21.9%
10,CCOc1cc(C2C(C#N)=C(N)OC3CCCC(=O)C32)ccc1OCCN1CCOCC1 (stereo not shown),3.79%
11,CC(C)CNC(=S)Nc1ccccc1F,6.48%
12,C[C@H](NC(=O)Cc1cccc2ccccc12)C(=O)N1CCCN(C)CC1,-3.05%
13,CCOC(=O)C1CCN(C(=O)C2CCN(c3ncnc4c3nc3n4CCCCC3)CC2)CC1,-13.8%
14,COc1ccc(N2CCN(c3ncnc4c3cnn4-c3ccc(C)cc3C)CC2)cc1,6.29%
15,O=C(c1cccc2ccccc12)N1CCN(c2ccc([N+](=O)[O-])c(NCc3ccco3)c2)CC1,10.2%
16,Cc1cnc(C(=O)N2CCCC(C(=O)c3cccc(OC(C)C)c3)C2)cn1 (stereo not shown),-7.63%
17,COC(=O)c1cc2oc(C)cc2n1CC(=O)N(C)c1ccccc1,5.36%
18,O=C(Nc1nc(-c2cccc([N+](=O)[O-])c2)cs1)c1cccc([N+](=O)[O-])c1C(=O)O,13.5%
19,CC1=CCC2C(=O)N(C(C)c3ccccc3)C(=O)C2C1 (stereo not shown),-2.1%
